Assay results reported in the supplement of paper PMC12578646, “Prodrug florfenicol amine is activated by intrinsic resistance to target Mycobacterium abscessus” (Nature Microbiology, 2025).
M. abscessus ATCC 19977 and its deletion, point and complemented mutants after 5 days of drug at 37 °C plus 24 h of resazurin. Growth in % of untreated wells at the dose given (lower = more inhibition); checkerboards give % inhibition (higher = more inhibition); IC50 from the fitted curve (lower = more potent). No active / inactive call. IC50 values come from the same 384-well curves. Growth is not capped and can exceed 100%. The direction of the checkerboard scale is read from the raw signals. Capreomycin is a mixture.

Key:
Test in all cases: growth relative to untreated wells; higher = more growth (less inhibition)
[1] = test system: Mycobacterium abscessus ATCC 19977 ΔwhiB7
Description: (§1)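 384-well two-fold dose series, two replicates; 5 days at 37 °C, then 24 h with resazurin; fluorescence scaled to growth and killed controls.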

[2] = test system: Mycobacterium abscessus ATCC 19977 WhiB7 R76del
Description: as §1

[3] = test system: Mycobacterium abscessus ATCC 19977
Description: as §1

[4] = test system: Mycobacterium abscessus ATCC 19977 Eis2 T258R
Description: as §1

NC[C@H]1O[C@H](O[C@H]2[C@H](O)[C@@H](O[C@H]3O[C@H](CO)[C@@H](O)[C@H](N)[C@H]3O)[C@H](N)C[C@@H]2N)[C@H](N)[C@@H](O)[C@@H]1O [kanamycin B]
growth [%]
Settings	[1]	[2]	[3]	[4]
0.03125 µg/mL	120.9	119	113	107.9
0.0625 µg/mL	113	110	118	117.8
0.125 µg/mL	111	120	112	115.5
0.25 µg/mL	129	119	116	117
0.5 µg/mL	149.5	120	119	120
1 µg/mL	158	126	121	130
2 µg/mL	-1.87	0.00844	125	102
4 µg/mL	-1.99	-0.592	131	0.977
8 µg/mL	-2.09	-0.595	16.1	-1.2
16 µg/mL	-1.86	-0.285	0.479	-1.04
32 µg/mL	-1.6	-0.0151	0.336	-0.669
64 µg/mL	-0.665	1.17	1.31	0.385

CC(=O)NC[C@H]1CN(c2ccc(N3CCOCC3)c(F)c2)C(=O)O1 [linezolid]
growth [%]
Settings	[1]	[2]	[3]	[4]
0.125 µg/mL	91.4	99.8	96.14	83.8
0.25 µg/mL	91.4	102.9	100.2	99.6
0.5 µg/mL	94.345	102	102	96.3
1 µg/mL	112	113.6	108	110
2 µg/mL	126	115	102	102
4 µg/mL	73.9	35.8	24.6	20.4
8 µg/mL	10.9	6.14	3.06	1.1
16 µg/mL	-2.35	-2.69	-2.3	-2.86
32 µg/mL	-5.07	-3.1	-2.87	-3.21
64 µg/mL	-5.38	-2.89	2.51	-3.31
128 µg/mL	-4.91	-3.08	-2.46	-3.52
256 µg/mL	-5.5	-2.45	-1.75	-3

CN(C)c1cc(CNCC(C)(C)C)c(O)c2c1C[C@H]1C[C@H]3[C@H](N(C)C)C(O)=C(C(N)=O)C(=O)[C@@]3(O)C(O)=C1C2=O [omadacycline]
growth [%]
Settings	[1]	[2]	[3]	[4]
0.00625 µg/mL	89.4	94.2	92.5	92.9
0.0125 µg/mL	103	99.6	102	97.9
0.025 µg/mL	87.5	95.9	98.5	94.5
0.05 µg/mL	89.4	105	104	98.9
0.1 µg/mL	87.5	96.5	93.6	92.2
0.2 µg/mL	91.42	98.8	98.1	92.4
0.4 µg/mL	92.3	104	104	94.5
0.8 µg/mL	6.25	-0.503	73.5	77.7
1.6 µg/mL	-8.16	-6.91	-1.99	0.484
3.2 µg/mL	-0.402	-8.61	-7.76	-8.2
6.4 µg/mL	-11	-8.98	-8.51	-9.12
12.8 µg/mL	-10.8	-8.344	-8.7	-9.26

CN[C@@H]1[C@H](O)[C@H](NC)[C@H]2O[C@@]3(O)C(=O)C[C@@H](C)O[C@H]3O[C@@H]2[C@H]1O [spectinomycin]
growth [%]
Settings	[1]	[2]	[3]	[4]
0.5 µg/mL	105	101	97.5	89.8
1 µg/mL	117	115	108	107
2 µg/mL	112	110	106	95.4
4 µg/mL	120	130	115.2	113
8 µg/mL	149	130.6	112	92.6
16 µg/mL	152	137	124	119
32 µg/mL	27.5	41.5	132	119
64 µg/mL	-0.952	1.53	126	115
128 µg/mL	-1.91	0.864	117	98.7
256 µg/mL	-2.26	-0.716	32	26.1
512 µg/mL	-2.03	-2.34	24.6	13.7
1024 µg/mL	-0.422	1.02	3.03	1.96

CN(C)c1cc(NC(=O)CNC(C)(C)C)c(O)c2c1C[C@H]1C[C@H]3[C@H](N(C)C)C(O)=C(C(N)=O)C(=O)[C@@]3(O)C(O)=C1C2=O [tigecycline]
growth [%]
Settings	[1]	[2]	[3]	[4]
0.00390625 µg/mL	101	98	97.7	103
0.0078125 µg/mL	100.5	102	104	105
0.015625 µg/mL	105	103	104	102
0.03125 µg/mL	102	98.1	96.1	104
0.0625 µg/mL	102	105	95	105
0.125 µg/mL	100	107	100.8	108
0.25 µg/mL	108	115.1	113	116
0.5 µg/mL	137	125.1	123	121.8
1 µg/mL	54	18	82.2	68.9
2 µg/mL	-5.92	-4.59	-0.0321	0.745
4 µg/mL	-9.05	-7.59	-6.21	-6.04
